In PMC6919601, “Identification of Plasmodium dipeptidyl aminopeptidase allosteric inhibitors by high throughput screening” (PLoS ONE, 2019):
Where “and” joins values, the source holds several entries; their conditions need not be identical. Equal entries are not always repeated. In all, about 110,000 compounds went through this assay and about 230 (0.21%) showed an effect of 50% or more. The list shows a part of the results.

target: DPAP1 (Plasmodium falciparum, UniProt Q8IIJ9); experiment: primary screen, percent inhibition; read by cleavage of a fluorogenic dipeptide substrate; higher = more effect of the substance; design: species or system P. falciparum D10 trophozoite lysates; single well
Sequence (Q8IIJ9 whole entry, looked up): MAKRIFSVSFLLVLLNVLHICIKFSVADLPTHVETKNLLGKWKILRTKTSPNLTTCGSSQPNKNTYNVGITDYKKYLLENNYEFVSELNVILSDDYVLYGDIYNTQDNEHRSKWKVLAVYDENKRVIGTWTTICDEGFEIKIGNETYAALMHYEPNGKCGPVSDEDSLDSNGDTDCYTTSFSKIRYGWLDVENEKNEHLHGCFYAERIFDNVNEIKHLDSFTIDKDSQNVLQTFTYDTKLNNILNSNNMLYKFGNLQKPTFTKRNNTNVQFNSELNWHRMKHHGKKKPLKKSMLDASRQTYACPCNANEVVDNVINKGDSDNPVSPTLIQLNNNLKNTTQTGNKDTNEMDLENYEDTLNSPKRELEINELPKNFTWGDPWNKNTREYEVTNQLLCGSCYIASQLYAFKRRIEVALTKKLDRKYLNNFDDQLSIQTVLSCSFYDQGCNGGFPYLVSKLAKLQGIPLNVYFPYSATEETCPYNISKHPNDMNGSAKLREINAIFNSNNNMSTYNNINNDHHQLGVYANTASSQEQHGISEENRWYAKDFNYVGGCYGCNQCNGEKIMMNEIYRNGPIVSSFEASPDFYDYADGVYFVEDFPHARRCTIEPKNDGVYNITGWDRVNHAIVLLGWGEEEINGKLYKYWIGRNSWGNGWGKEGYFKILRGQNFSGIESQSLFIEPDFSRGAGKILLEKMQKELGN
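Further: 30 min substrate incubation versus DMSO and 10 µM JCP410 controls.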

SMILES | % Inhibition @ 10 uM
CCS(=O)(=O)C1=NSC2=NC(=O)/C(=C\c3ccc(C)cc3)C(=N)N21 | 1.85%
COCCCN1C(=O)c2ccccc2C1C(=O)NC1CCCCCC1 (centres unmarked) | 1.76%
Nc1nc2ccc(S(=O)(=O)N3CCOCC3)cc2s1 | 4.47%
COc1ccc(N2CC(C(=O)Nc3ccc(F)cc3F)CC2=O)cc1 (centres unmarked) | 0.674% and 1.19%
COc1cccc(C(=O)Nc2ccc(Cl)cc2F)c1 | -5.14%
CC[C@H](NC(=O)[C@H](CCSc1ccccc1)NC1=NS(=O)(=O)c2ccccc21)C(=O)c1nc2ccccc2o1 | -1.5%
CCOC(=O)N1CCN(c2cc(N3CCC(C)CC3)c(F)cc2[N+](=O)[O-])CC1 | 2.05%
COc1cccc(-c2cc(C(=O)Nc3sc(C)c(C)c3C(N)=O)c3ccccc3n2)c1 | -4.16%
CC(C)c1ccc(-c2c(NCCc3ccc(Cl)cc3)c(=O)c2=O)cc1 | 3.04%
O=[N+]([O-])c1ccc(-c2cc(O)n(-c3nc4ccccc4s3)n2)cc1 | -2.12%
CC1CCN(CN2C(=O)c3ccccc3C2=O)CC1 | -6.36%
O=C(Nc1cccc(Br)c1)c1ccccc1F | -3.35%
COc1cc(OC)cc(C(=O)Nc2ccc(C(F)(F)F)cc2)c1 | 3.9%
c1cc2c(cc1C1CCCCC1)c1c3n2CCN=C3CCC1 | 9.68%
Cc1cc(O)nc2c1c(C)nn2-c1ccccc1 | -1.86%
c1cncc(CNc2nc3ccccc3c3nc(-c4cccnc4)nn23)c1 | -6.07%
CNc1nc(/C=C/c2ccccc2)nc(-c2ccccc2O)n1 | -3.32%
CC/N=c1\c(NS(=O)(=O)c2ccc(C)cc2C)c(O)oc2ccccc12 | 4.47%
Cc1[nH]c2ccccc2c1CCNC(=O)/C(=C/c1ccccc1)NC(=O)c1ccc(Br)o1 | -2.5%
COc1ccc(-n2nc3c(N4CCCC(C(=O)NCCc5cccs5)C4)nnc(C)c3c2C)cc1 (centres unmarked) | 10.7%
CC(C)c1ccc(-c2c(N3CCc4ccccc4C3)c(=O)c2=O)cc1 | 0.589%
CC(=O)Nc1ccc(C)c(NC(=O)COc2ccc(C)cc2)c1 | -4.01%
Cc1cccc(C(=O)N2CCN(C(=O)c3cccc(C)c3)CC2)c1 | 2.94%
COc1ccc(/C=C\c2onc(C)c2S(=O)(=O)N2CCC(C(=O)N3CCCC(C)C3)CC2)cc1 (centres unmarked) | -3.09%
CCOc1ccccc1C1C(C#N)=C(N)Oc2[nH]nc(-c3ccc(C)cc3)c21 (centres unmarked) | -2.78%
CCOC(=O)C1=CN(C)C=C(C(=O)OCC)C1c1cccs1 | -5.05%
